The values below come from PubChem BioAssay AID488969 (Vanderbilt High Throughput Screening Facility, 2010).

Whole data set: some 110,000 compounds, median “z-score” near -0.1, cut for the highest 2% near 2. The list shows a part of the results. Activity calls are given as the source filed them.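 How the source made its calls: active means z-score in the third read window above 3 or below -3; inactive means the rest.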

For the assay, the target named is Metabotropic glutamate receptor 8 (Rattus norvegicus) (UniProt P70579). The assay is described as follows: rat mGluR8 modulators via GIRK flux, primary screen, cell-based, thallium flux, HTS (AID 488969). Conditions: HEK293 rat mGluR8, GIRK (G protein-gated inwardly rectifying potassium channel) thallium flux, FluoZin2; at 10 µM; stronger effect = higher value; submaximal glutamate (EC20) added with thallium.
UniProt P70579, sequence (P70579 whole entry, looked up): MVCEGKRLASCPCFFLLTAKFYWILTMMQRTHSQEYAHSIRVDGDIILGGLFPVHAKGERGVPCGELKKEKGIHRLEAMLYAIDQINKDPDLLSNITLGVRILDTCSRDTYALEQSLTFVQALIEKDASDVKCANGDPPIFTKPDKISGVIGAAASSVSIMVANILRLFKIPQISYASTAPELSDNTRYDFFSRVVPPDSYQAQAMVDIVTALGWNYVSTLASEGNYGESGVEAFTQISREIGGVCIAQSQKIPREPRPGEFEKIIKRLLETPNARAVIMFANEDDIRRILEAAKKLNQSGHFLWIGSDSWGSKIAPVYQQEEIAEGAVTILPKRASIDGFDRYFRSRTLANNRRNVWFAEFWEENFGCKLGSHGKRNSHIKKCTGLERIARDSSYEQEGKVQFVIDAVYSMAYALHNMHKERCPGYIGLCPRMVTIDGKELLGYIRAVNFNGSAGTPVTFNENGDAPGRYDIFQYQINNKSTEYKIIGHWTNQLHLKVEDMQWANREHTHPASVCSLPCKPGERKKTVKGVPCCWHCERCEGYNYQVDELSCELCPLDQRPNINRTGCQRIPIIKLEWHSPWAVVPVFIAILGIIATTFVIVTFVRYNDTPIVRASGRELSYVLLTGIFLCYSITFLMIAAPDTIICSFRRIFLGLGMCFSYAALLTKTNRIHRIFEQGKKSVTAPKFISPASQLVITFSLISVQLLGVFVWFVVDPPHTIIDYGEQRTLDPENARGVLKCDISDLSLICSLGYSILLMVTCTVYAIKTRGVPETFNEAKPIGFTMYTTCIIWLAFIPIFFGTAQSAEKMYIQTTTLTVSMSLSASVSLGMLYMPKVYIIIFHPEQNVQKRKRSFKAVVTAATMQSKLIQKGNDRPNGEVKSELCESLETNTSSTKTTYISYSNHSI
`c1ccn(-c2ccc(N3CCOCC3)cc2)c1`: the z-score is 0.346.

The compound `Cc1ccc(N(CC(=O)Nc2ccccc2C(=O)NCc2ccco2)S(=O)(=O)c2ccccc2)cc1C` gave a z-score of -0.0946.

`CCOC(=O)c1c(C)[nH]c(C(=O)OCC(=O)NC(C)C)c1C` displayed a z-score of 0.214.

Consider `CC(NC(=O)CSc1nc2c(cc1C#N)CN(C)CC2)c1ccccc1` (stereo not given), for which the z-score turned out to be 0.37.

On to `Cc1ccc(C(=O)N/C(=C\c2ccco2)C(=O)NCCc2c[nH]c3ccccc23)cc1`, for which the z-score was -0.0416.

With `CSc1nc(NCc2ccco2)c2ccccc2n1`, the z-score was -0.745.

In turn, `CCCCC(=O)Nc1ccc2c(c1)nc1n2CCOC1` came in with a z-score of 0.395.

On to `Cc1ccc2cc(C#N)c(SCC(=O)NNC(=O)Cc3ccccc3)nc2c1`, for which the z-score came out at 0.29.

Regarding `O=S(=O)(NCc1ccccc1)c1cccc(S(=O)(=O)N2CCOCC2)c1`, the z-score was -0.0157.

Regarding `COc1ccccc1C/C(N)=N/OC(=O)c1ccc(C)c([N+](=O)[O-])c1`, the z-score is -0.108.

`Cc1ccc(C(=O)CSc2nnc(-c3ccco3)n2CC2CCCO2)cc1` (stereo not given) registered a z-score of 0.021.

`COc1ccccc1CNC(=O)CCC(=O)Nc1nnc(C(C)C)s1` returned a z-score of 0.215.

`C=CCn1c(N)cc(=O)nc1SC(C)C(=O)Nc1cccc2ccccc12` (stereo not given) displayed a z-score of 0.871.

`COc1ccc(C2CC(=O)C=C(NCCC(C)C)C2)cc1` (stereo not given): the z-score stood at 0.226.

Regarding `O=C(CCc1nc(-c2ccccc2F)no1)NCCN1CCN(Cc2ccccc2)CC1`, the z-score is active: -3.33.

Compound `COc1ccc(Cn2nnc(C(=O)Nc3ccc(F)cc3)c2N)cc1` gave a z-score of -0.321.

For `COc1ccc(C2(CNC(=O)c3ccc(OC)c([N+](=O)[O-])c3)CCOCC2)cc1OC`, the z-score was -0.13.

`O=C(c1ccc(Br)s1)N1CCN(Cc2ccc3c(c2)OCO3)CC1` registered a z-score of 0.000905.

Turning to `Cc1ccc(S(=O)(=O)N(C)c2ccccc2)cc1`, the z-score was -0.466.

As to `COc1ccc(N2CCN(c3nc(NCCO)nc(N4CCOCC4)n3)CC2)cc1`, the z-score stood at 0.894.

On to `COc1cccc(-n2nc3c(=O)n(Cc4ccccc4Cl)nc(C)c3c2C)c1`, for which the z-score is -0.182.

For `O=C(Nc1ccc2c(c1)OCO2)C1CCN(S(=O)(=O)Cc2ccccc2)CC1`, the z-score is -0.672.

For the compound `O=C(COc1ccc(/C=N/NS(=O)(=O)c2ccccc2)cc1)Nc1cccc(Cl)c1`, the z-score is -0.227.

`COc1cccc(C(C(=O)NCc2ccco2)N(Cc2ccco2)C(=O)Cn2nnc3ccccc32)c1` (stereo not given) came in with a z-score of -0.372.

`CCCOc1ccc(Cn2ccnc2)cc1[N+](=O)[O-]`: the z-score was -0.086.

Regarding `CC1CCCN(C(=O)CNC(=O)Cn2ccc3ccccc3c2=O)C1` (stereo not given), the z-score is 0.466.

Consider `COC(=O)CSc1nc2cc(C)cc(C)c2cc1C#N`, for which the z-score was -0.146.

In turn, `OCC1(c2cc(C(F)(F)F)n[nH]2)CCCCC1` showed a z-score of -0.213.

The compound `CCOC(=O)c1c(C)[nH]c(C(=O)OCc2c(C)noc2C)c1C` came in with a z-score of -0.251.

`CCCCC(=O)Nc1nnc(-c2ccc(OC)cc2)s1` had a z-score of 0.207.

With `COc1ccc(C(=O)N=c2c(C#N)cc3c(=O)n4cccc(C)c4nc3n2Cc2ccco2)cc1`, the z-score is -0.152.

Compound `Cc1scc(C(=O)N/N=C/c2ccc(OC(C)C)cc2)c1C` showed a z-score of 0.164.

Compound `O=C(C1CC1)N1CCN=C1SCc1ccccc1Cl` gave a z-score of -0.159.

For the compound `COc1ccc(N(C(=O)c2ccco2)C(C(=O)NC2CCCCC2)c2ccccc2)cc1` (stereo not given), the z-score is -0.263.

In turn, `COC(=O)c1cc2n(n1)CCN(Cc1ccc(C)cc1)C2=O` returned a z-score of -0.151.

On to `CCCn1nnnc1NC(=O)c1ccc2ccccc2c1`, for which the z-score is active: 8.08.

On to `CCOC(=O)C1CN(S(=O)(=O)c2ccc(OC)cc2)c2cc(S(=O)(=O)CC)ccc2O1` (stereo not given), for which the z-score was -1.32.

Compound `COc1cc(NS(=O)(=O)c2ccc(Nc3nc(-c4ccccc4)cs3)cc2)nc(OC)n1` displayed a z-score of -0.636.

Compound `COc1ccc(C(C)=O)c(OC(=O)c2ccc(OC)c(OC)c2)c1` displayed a z-score of 0.166.

`Clc1ccc(CNCc2cccs2)c(Cl)c1` registered a z-score of -0.654.

`Cc1noc(C)c1C(c1ccccc1)S(=O)(=O)c1ccccc1` (stereo not given) had a z-score of 0.53.

`CN(C)/C=N/C(=S)Nc1ccc(F)cc1` registered a z-score of -0.239.

The compound `CCOc1cc(C)c(Cl)cc1S(=O)(=O)n1nnc2ccccc21` registered a z-score of -1.3.

`CC1CC(=O)c2cnc(Nc3cccc(C(F)(F)F)c3)nc2C1` (stereo not given) had a z-score of -0.109.

With `CCCN1CCN(C(=S)Nc2ccccc2C(F)(F)F)CC1`, the z-score worked out at 2.17.

`COc1cc(/C=N/NC(=O)C(=O)NCc2ccco2)ccc1O` showed a z-score of -0.547.

In turn, `O=S1(=O)CCN(Cc2ccc(Cl)cc2)CC1` showed a z-score of 0.976.

In turn, `COC(=O)COc1ccc(S(=O)(=O)Nc2ccc3c(c2)OCO3)cc1Cl` gave a z-score of -0.362.

For `S=C(Nc1ccccc1Cl)Nc1ccc(Cl)cc1Cl`, the z-score is active: 5.05.

In the case of `CNC(=O)NC(=O)CSc1ccc(NC(C)=O)cc1`, the z-score was -1.2.

Compound `O=C(c1cc(N2C(=O)C3C4CCC(C4)C3C2=O)ccc1Cl)N1CCN(c2ccc(F)cc2)CC1` (stereo not given) came in with a z-score of -0.422.

Compound `O=c1[nH]c2cnccc2n1-c1ccccc1` yielded a z-score of 0.17.

The compound `O=C(O)C1CCC(=O)N(C2CCCCC2)C1c1ccccc1` (stereo not given) had a z-score of 0.373.

Compound `COC(=O)CSc1nc2sc3c(c2c(=O)n1C1CCCCC1)CCN(C)C3` gave a z-score of -0.562.

In the case of `O=C(COC(=O)c1ccc(-c2cnc3ccccc3n2)cc1)c1ccccc1`, the z-score was -0.0971.

The compound `COCCNC(=O)Cc1cn(C)c2ccccc12` displayed a z-score of -0.27.

As to `Cc1c(C#N)c2ccccc2n1CC(=O)NCCc1c[nH]c2ccccc12`, the z-score was -0.0655.

For the compound `COc1ccc(C)cc1NC(=O)CCS(=O)(=O)c1cccc2nonc12`, the z-score was found to be 0.142.

In turn, `Cc1ccc(S(=O)(=O)N2CCCC2)cc1S(=O)(=O)N1CCCC1` returned a z-score of 0.281.

Turning to `c1ccc2c(c1)oc1c(N3CCOCC3)ncnc12`, the z-score worked out at 0.0592.

With `Fc1ccccc1Cc1nnc2n1N=C(c1ccc(Cl)cc1)CS2`, the z-score is -0.15.

In turn, `CCc1ccc(-n2c(CSc3nnnn3-c3ccccc3)nc3ccccc3c2=O)cc1` returned a z-score of -0.169.

In the case of `CSCCC(NC(=O)C1CCC(C)CC1)C(=O)N1CCN(c2ccccn2)CC1` (stereo not given), the z-score was -0.488.

`Cc1ccccc1Cn1cc(NC(=O)c2cc(-c3cccs3)on2)cn1` registered a z-score of -0.0761.

As for `O=C(Nc1cccc(-c2nc3ccccc3[nH]2)c1)c1cccc(NC(=O)c2ccco2)c1`, the z-score was found to be 0.28.

For the compound `COc1ccc(OC)c(-n2c(SCC(=O)Nc3cc(C)on3)nnc2-c2c[nH]c3ccccc23)c1`, the z-score is -0.76.

For `CC(C)CC(=O)N=C1SC2CS(=O)(=O)CC2N1Cc1ccccc1` (stereo not given), the z-score was -0.23.

On to `Cn1c2ccc(F)cc2c2ncn(Cc3ccco3)c(=O)c21`, for which the z-score is -0.587.

In turn, `CCOC(=O)N1CCC(NC(=O)c2ccc3c(c2)ncn3C2CCCC2)CC1` came in with a z-score of 0.215.

Consider `Cc1ccc(Cn2c(Cc3ccccc3)nc3ccccc32)cc1`, for which the z-score was -0.439.

On to `Brc1cnc(N2CCCC2)nc1N1CCOCC1`, for which the z-score was -0.191.

The compound `COc1cccc(-c2noc(Cn3nc(C)c([N+](=O)[O-])c3C)n2)c1` came in with a z-score of -0.544.

Regarding `CCOC(=O)c1sc(NC(=O)COC(=O)CNC(=O)c2ccco2)c(C(=O)OCC)c1C`, the z-score worked out at 0.493.

As for `O=C(c1ccc(Cl)c(Cl)c1)N(Cc1ccco1)c1ccc(O)cc1`, the z-score was -0.147.

With `Cc1ccc(N=Nc2c(N)[nH]n3c(=O)cc(-c4ccccc4)nc23)cc1`, the z-score was determined as 0.281.

With `O=C(CSc1oc(-c2ccco2)nc1S(=O)(=O)c1ccccc1)NCC1CCCO1` (stereo not given), the z-score came to 0.249.

`O=C(CN1C(=O)c2ccccc2C1=O)Nc1sc2c(c1C(=O)NCc1ccco1)CCCC2` registered a z-score of -0.0489.

The compound `N#Cc1cnn(Cc2ccccc2)c1/N=C/N1CCOCC1` displayed a z-score of -0.00615.

`O=C(CSCc1ccc([N+](=O)[O-])cc1)NCCSCc1ccccc1` came in with a z-score of -0.153.

For `Cc1ccc(NC(=O)CSC(N)=O)cc1Cl`, the z-score is active: 5.44.

Compound `c1ccc2ncc(-n3cnnn3)cc2c1` came in with a z-score of -0.189.

`COc1ccc2c(Cl)c(C(=O)NCc3ccco3)sc2c1` came in with a z-score of -0.373.

`Cc1cnc(C(=O)OCC(=O)NC(C)C)cn1`: the z-score was -0.327.

In turn, `Cc1sc2ncnc(N3CCC(C)CC3)c2c1C` returned a z-score of -0.258.

As to `COc1ccccc1/C=C/C=N/n1c(C2CCCCC2)n[nH]c1=S`, the z-score is -0.154.

Regarding `O=C(Nc1ccc2cn[nH]c2c1)c1c(Cl)cccc1Cl`, the z-score was -0.0906.

`O=C(CNC(=O)c1ccc(N2C(=O)c3ccccc3C2=O)cc1)OCC(=O)c1ccccc1` had a z-score of -0.0932.

In turn, `COc1ccc(N(CC(=O)Nc2ccc(OC)c(Cl)c2)S(=O)(=O)c2c(C)noc2C)cc1` returned a z-score of -0.546.

Compound `CCOc1ccc(NC(=O)Cn2c(=O)oc3ccccc32)cc1` gave a z-score of 0.142.

`CC(=O)c1cccc(NC(=O)c2ccc(N(Cc3ccccc3C)S(C)(=O)=O)cc2)c1` registered a z-score of -0.278.

The compound `CCOc1ccc(C(=O)Nc2cc(-c3nc4ccccc4[nH]3)ccc2Cl)cc1[N+](=O)[O-]` showed a z-score of -0.393.

On to `Cc1nc2cc(Cl)ccc2n1-c1ccccc1`, for which the z-score is -0.335.

Take `COc1ccc(OC)c(S(=O)(=O)Nc2ccccc2C(=O)O)c1`: the z-score is 0.923.

For the compound `COc1cccc(OCC(=O)NNC(=O)c2cccs2)c1`, the z-score was -0.15.

In turn, `CC1(c2cc([N+](=O)[O-])cc([N+](=O)[O-])c2)CC(C)(C)N(C(=O)c2ccccc2)c2ccccc21` (stereo not given) returned a z-score of -1.6.

`CN(CCOc1ccccc1)S(=O)(=O)c1ccc2oc3ccccc3c2c1` had a z-score of -0.0134.

`CC1=CC(C)(C)N2C(=O)C3(SCC(=O)N3c3ccc(F)cc3)c3cc(C)cc1c32` (stereo not given): the z-score worked out at 0.536.

`CN1CCN(C(=S)Nc2ccc(Cl)cc2Cl)CC1` yielded a z-score of -0.00982.

Compound `O=C(Cn1cnc2c(cnn2-c2ccc(F)cc2)c1=O)N1CCN(c2ccccc2)CC1` returned a z-score of -0.442.

Take `COC(=O)CC1COc2ccccc2N1C(=O)c1ccc(Cl)cc1` (stereo not given): the z-score is -0.235.

For `CC(=O)c1c(O)cc(=O)n(-c2ccccc2)c1-c1ccc(Cl)cc1`, the z-score came to 0.0305.

For the compound `O=C(ONC1=NCCCCC1)c1c(F)cccc1F`, the z-score was -0.673.

Turning to `Cc1ccc(C(=O)C(OC(=O)COc2ccccc2C)c2ccccc2)cc1` (stereo not given), the z-score was -0.167.

In turn, `O=C1N/C(=N\N=C\c2ccccn2)SC1Cc1cccc(SC(F)F)c1` (stereo not given) came in with a z-score of -0.22.

Turning to `CCc1ccccc1NC(=O)N1CCC(NC(=O)C(Cc2ccc(OC)c(OC)c2)NC(C)=O)CC1` (stereo not given), the z-score worked out at 0.0816.

For `Cc1cc(C)c2cc(C#N)c(NCCOC(=O)c3ccccc3C)nc2c1`, the z-score is -0.161.

For the compound `COc1ccc(N(C(=O)c2ccc(Br)o2)C2C=CS(=O)(=O)C2)cc1` (stereo not given), the z-score worked out at 0.297.

Compound `CCn1c(SCc2c(Cl)cccc2Cl)nnc1-c1nn(-c2ccccc2)ccc1=O` registered a z-score of -1.26.

`Clc1ccc(-c2n[nH]c3c2CCC3)c(Cl)c1` yielded a z-score of 0.0993.

Consider `COC(=O)c1cc(NC(=O)CN2CCC(C(N)=O)(N3CCCCC3)CC2)cc(C(=O)OC)c1`, for which the z-score is -0.587.
